Variants at the background level are over-represented here.
B1: TPR 5TU (parent)
chain: GGAUCUUCUCGAUCUAACAAAAAAGACAAAUCUGCCACAAAGCUUGAGAGCAUCUUCGGAUGCAGAGGCGGCAGCCUUCGGUGGCGCGAUAGCGCCAACGUUCUCAACUAUGACACGCAAAACGCGUGCUCCGUUGAAUGGAGUUUAUCAUG

Variants of: B1
Assay: polymerase ribozyme fitness, log enrichment relative to wild type (log ratio); higher = more active; in vitro selection for triplet polymerase activity
Summary of the method: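 Mutant libraries were PCR-built and transcribed for each subunit of a heterodimeric triplet polymerase ribozyme and selected for one round in triplicate at −7 °C, frozen, before gel excision of extended constructs and streptavidin-bead capture. Input and output libraries were Illumina-sequenced, keeping genotypes with ≥10 input reads and ≥1 read per output. Fitness is a logarithmic ratio of genotype to wild-type enrichment, in base 2, using inverse-variance-weighted replicate averages.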
With A30C C87G C99G C132A G140U the “polymerase ribozyme fitness (log ratio)” value was no more than -4.2. For A30C C87U C99G G143U A150G G152C, the “polymerase ribozyme fitness (log ratio)” value was no more than -4.2. In the case of A30C C87U U104G U111C, the “polymerase ribozyme fitness (log ratio)” value is reported as no more than -4.2. For A30C C93G C116G G124A C129U, the “polymerase ribozyme fitness (log ratio)” value was no more than -4.2. For A30C C93U A106U C131A A142C, the “polymerase ribozyme fitness (log ratio)” value was -4.12. In the case of A30C C95G A119U C132U, the “polymerase ribozyme fitness (log ratio)” value is reported as no more than -4.2. For A30C C96G, the “polymerase ribozyme fitness (log ratio)” value was -4.03. In the case of A30C C105G, the “polymerase ribozyme fitness (log ratio)” value is reported as no more than -4.2. In the case of A30C G34U U55A C93A C96A A115U G124U U135A G143C, the “polymerase ribozyme fitness (log ratio)” value is reported as no more than -4.2. For A30C G42A C54U G58A U90G C93G C96U C125A U148A, the “polymerase ribozyme fitness (log ratio)” value was no more than -4.2. For A30C G42A C85A C116A G140A, the “polymerase ribozyme fitness (log ratio)” value was no more than -4.2. In the case of A30C G42A G80U G88U C93G C96G, the “polymerase ribozyme fitness (log ratio)” value is reported as no more than -4.2. For A30C G42U G88A G94A A150U, the “polymerase ribozyme fitness (log ratio)” value was no more than -4.2. For A30C G48C C51U G67U U82G G83U A89U U148A C149U, the “polymerase ribozyme fitness (log ratio)” value was no more than -4.2. With A30C G59A the “polymerase ribozyme fitness (log ratio)” value was no more than -4.2. With A30C G71C G141U the “polymerase ribozyme fitness (log ratio)” value was no more than -4.2. For A30C G74A A91U C108G C114U U148A A150U, the “polymerase ribozyme fitness (log ratio)” value was no more than -4.2. In the case of A30C G74U G124U, the “polymerase ribozyme fitness (log ratio)” value is reported as no more than -4.2. In the case of A30C G80A C87G A115G U145G, the “polymerase ribozyme fitness (log ratio)” value is reported as no more than -4.2. For A30C G80U C87U, the “polymerase ribozyme fitness (log ratio)” value was no more than -4.2. With A30C G81U C93A C99G A110G A120U C123A G124A U135A the “polymerase ribozyme fitness (log ratio)” value was no more than -4.2. With A30C G83A G88A A98U C125A A147G the “polymerase ribozyme fitness (log ratio)” value was no more than -4.2. In the case of A30C G84A G100A U130G G141U, the “polymerase ribozyme fitness (log ratio)” value is reported as no more than -4.2. For A30C G88C U127A G143A, the “polymerase ribozyme fitness (log ratio)” value was no more than -4.2. For A30C G92A U104A A106C C108A, the “polymerase ribozyme fitness (log ratio)” value was no more than -4.2. In the case of A30C G152U, the “polymerase ribozyme fitness (log ratio)” value is reported as no more than -4.2. With A30C U31A A40G C57U C87G A107U G126A the “polymerase ribozyme fitness (log ratio)” value was no more than -4.2. For A30C U31G G34C C95A A147C, the “polymerase ribozyme fitness (log ratio)” value was no more than -4.2. In the case of A30C U33A G68U A73U C95A C114A A121G, the “polymerase ribozyme fitness (log ratio)” value is reported as no more than -4.2. With A30C U33C A39U A40G G83A U90C A121G the “polymerase ribozyme fitness (log ratio)” value was no more than -4.2. For A30C U33C G67A C93G A119U, the “polymerase ribozyme fitness (log ratio)” value was -3.89. For A30C U44C C85U A89U U135A, the “polymerase ribozyme fitness (log ratio)” value was no more than -4.2. With A30C U45A A47G A49G C95U C99G U144C the “polymerase ribozyme fitness (log ratio)” value was no more than -4.2. In the case of A30C U53A U78G G84U A137G, the “polymerase ribozyme fitness (log ratio)” value is reported as no more than -4.2. In the case of A30C U55A C87G C93A G140C, the “polymerase ribozyme fitness (log ratio)” value is reported as no more than -4.2. In the case of A30C U55A U82G C99G A110C, the “polymerase ribozyme fitness (log ratio)” value is reported as no more than -4.2. For A30C U55G C76U C85A C125G, the “polymerase ribozyme fitness (log ratio)” value was no more than -4.2. For A30C U56C G58C G80C A89U A110U U148A, the “polymerase ribozyme fitness (log ratio)” value was no more than -4.2. With A30C U56G G83U C87A A106U A147U the “polymerase ribozyme fitness (log ratio)” value was no more than -4.2. In the case of A30G A39C G50U C95G A107C, the “polymerase ribozyme fitness (log ratio)” value is reported as no more than -4.2. With A30G A39U A52G U55G the “polymerase ribozyme fitness (log ratio)” value was -4.08. With A30G A41U A47G G88C the “polymerase ribozyme fitness (log ratio)” value was no more than -4.2. With A30G A41U C69G C76U G94U U102G U130C the “polymerase ribozyme fitness (log ratio)” value was no more than -4.2. With A30G A47C G48A the “polymerase ribozyme fitness (log ratio)” value was no more than -4.2. With A30G A47G G50A G59A G86C A147C the “polymerase ribozyme fitness (log ratio)” value was no more than -4.2. For A30G A47G U56A G71C G117U A150U, the “polymerase ribozyme fitness (log ratio)” value was no more than -4.2. In the case of A30G A49C G92U A137U G152C, the “polymerase ribozyme fitness (log ratio)” value is reported as no more than -4.2. With A30G A49G U102G U135C the “polymerase ribozyme fitness (log ratio)” value was no more than -4.2. With A30G A52G G58C A91U G92C C93A U145A the “polymerase ribozyme fitness (log ratio)” value was no more than -4.2. For A30G A52G G100A C103A C114U G117A G140U, the “polymerase ribozyme fitness (log ratio)” value was no more than -4.2. In the case of A30G A52U C105A A107U G141U, the “polymerase ribozyme fitness (log ratio)” value is reported as no more than -4.2. In the case of A30G A60U C85A C95A C96A C125U A150C, the “polymerase ribozyme fitness (log ratio)” value is reported as no more than -4.2. In the case of A30G A66G C108G, the “polymerase ribozyme fitness (log ratio)” value is reported as no more than -4.2. For A30G A91C, the “polymerase ribozyme fitness (log ratio)” value was no more than -4.2. With A30G A91G the “polymerase ribozyme fitness (log ratio)” value was no more than -4.2. With A30G A91U A120G the “polymerase ribozyme fitness (log ratio)” value was no more than -4.2. For A30G C32A C43A C93A C105A, the “polymerase ribozyme fitness (log ratio)” value was no more than -4.2. For A30G C32G C51U U53A C54U C57G C87G C105A U151G, the “polymerase ribozyme fitness (log ratio)” value was no more than -4.2. For A30G C32G U56A C57G G86U A142G, the “polymerase ribozyme fitness (log ratio)” value was no more than -4.2. For A30G C32U G92A, the “polymerase ribozyme fitness (log ratio)” value was no more than -4.2. In the case of A30G C35G G59U A113C C131A, the “polymerase ribozyme fitness (log ratio)” value is reported as no more than -4.2. In the case of A30G C38A C57A G58C U78G A97G U101C U102G, the “polymerase ribozyme fitness (log ratio)” value is reported as no more than -4.2. With A30G C38A U77A G84A G86A A113C A137U the “polymerase ribozyme fitness (log ratio)” value was no more than -4.2. In the case of A30G C38G C57A A66C C95A, the “polymerase ribozyme fitness (log ratio)” value is reported as no more than -4.2. For A30G C38U A73G G141A, the “polymerase ribozyme fitness (log ratio)” value was no more than -4.2. With A30G C43A C93A C116A G133U A142C U146G A147G the “polymerase ribozyme fitness (log ratio)” value was no more than -4.2. With A30G C51A U55A U56A G74C C76U U102A G117A the “polymerase ribozyme fitness (log ratio)” value was no more than -4.2. With A30G C51A U55C U82A G94C C103G U109A C116A the “polymerase ribozyme fitness (log ratio)” value was no more than -4.2. For A30G C51U A52C U53G C54A G58U C76G, the “polymerase ribozyme fitness (log ratio)” value was no more than -4.2. For A30G C51U G68C A121G U127C, the “polymerase ribozyme fitness (log ratio)” value was no more than -4.2. For A30G C54A C85G A120U C125U G136A, the “polymerase ribozyme fitness (log ratio)” value was no more than -4.2. In the case of A30G C54A C87A, the “polymerase ribozyme fitness (log ratio)” value is reported as no more than -4.2. In the case of A30G C54G G68A C95G A121C, the “polymerase ribozyme fitness (log ratio)” value is reported as no more than -4.2. For A30G C54G G74U, the “polymerase ribozyme fitness (log ratio)” value was no more than -4.2. For A30G C54U C76G A91C, the “polymerase ribozyme fitness (log ratio)” value was no more than -4.2. With A30G C57A G58U C76A A107U G143C the “polymerase ribozyme fitness (log ratio)” value was no more than -4.2. For A30G C63U C79G C93G C99A G100U U101G, the “polymerase ribozyme fitness (log ratio)” value was no more than -4.2. In the case of A30G C75G C87G, the “polymerase ribozyme fitness (log ratio)” value is reported as no more than -4.2. With A30G C75U U77A G88C C123G the “polymerase ribozyme fitness (log ratio)” value was no more than -4.2. For A30G C76A C95A, the “polymerase ribozyme fitness (log ratio)” value was no more than -4.2. For A30G C79U G124U U135A, the “polymerase ribozyme fitness (log ratio)” value was no more than -4.2. For A30G C85U A150G, the “polymerase ribozyme fitness (log ratio)” value was no more than -4.2. With A30G C87A A91C A110U A115U U135C the “polymerase ribozyme fitness (log ratio)” value was no more than -4.2.

Reference: the RNAGym collection of RNA variant scans (doi:10.1073/pnas.2313332121)
